Measurements as given in the supplement of paper PMC3334620.
In all, about 33,000 sequences were measured (“E-score (-0.5 to 0.5)”: median about -0.016, highest 2% from about 0.32 on). The list shows a part of the results.

These sequences were tested against T1, Stp1 (UniProt B3LFK1) (assay: PBM E-score (8-mer binding enrichment) (E-score (-0.5 to 0.5)); higher = stronger / more preferred TF binding; most listed sequences are background and not binding sites). Conditions: protein concentration: 200 nM; construct: GST-full length.
T1 sequence: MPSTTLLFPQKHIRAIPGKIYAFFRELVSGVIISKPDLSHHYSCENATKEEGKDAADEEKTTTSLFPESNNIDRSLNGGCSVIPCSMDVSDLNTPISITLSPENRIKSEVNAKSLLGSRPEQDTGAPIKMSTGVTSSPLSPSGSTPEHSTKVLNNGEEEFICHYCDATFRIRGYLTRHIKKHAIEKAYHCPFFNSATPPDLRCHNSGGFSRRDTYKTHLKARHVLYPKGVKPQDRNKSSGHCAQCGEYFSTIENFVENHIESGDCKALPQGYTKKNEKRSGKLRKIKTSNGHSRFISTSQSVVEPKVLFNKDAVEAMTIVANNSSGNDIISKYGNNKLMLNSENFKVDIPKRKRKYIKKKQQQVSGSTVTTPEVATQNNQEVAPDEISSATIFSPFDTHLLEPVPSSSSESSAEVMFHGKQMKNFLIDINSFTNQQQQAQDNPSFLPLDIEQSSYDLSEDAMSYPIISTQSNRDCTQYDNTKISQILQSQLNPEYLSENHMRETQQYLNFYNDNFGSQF
Description: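 Universal 'all 10-mer' protein binding microarrays (Agilent AMADID 015681) probed with GST-tagged S. cerevisiae TFs (full-length or DBD) made by in vitro transcription/translation (PURExpress), about 100-200 nM. Bound TF was detected with fluorescent anti-GST. Each ungapped 8-mer (which stands for itself and its reverse complement) is scored by the PBM enrichment score (E-score), a modified Wilcoxon-Mann-Whitney statistic from -0.5 to +0.5, computed with the Universal PBM Analysis Suite. Scale: above 0.35 generally sequence-specific binding.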

Sequence | PBM E-score
CGTGGTAA | -0.0899
CCACCTGG | -0.213
ATTTGTGC | 0.148
CAGATACC | -0.0896
AGCCGATC | -0.0437
CCTATCAG | -0.162
ATCAACGG | 0.195
AGTCAGAC | -0.0504
GAAAATGC | 0.0445
ACTGGTTG | 0.132
GCAATGCA | 0.0407
AGAGCCTG | -0.105
CAGACTGC | -0.123
GTGAATGA | 0.0753
ACTTTGGG | -0.149
AAGGTACG | 0.052
ATACTTGA | -0.0722
AGAGATAG | 0.0605
GCCGGGCA | -0.0462
AGACCGCG | 0.063
ACTCGTAG | -0.135
TCTAAGAA | 0.176
ACAATTAC | 0.0526
GCCAGCGC | -0.0384
AACCCCTA | -0.218

Sequence | PBM E-score
GAGGGCAC | -0.0254
CCATTACA | 0.193
CGGAGCCA | -0.135
ATTATAAG | 0.0354
GCTTAGGA | -0.228
ACGGCAAA | 0.45
AGCCCCCC | -0.372
CAATATCG | 0.0367
ACCCTTTA | 0.0773
GCATCTTA | 0.121
CTAACTGC | -0.0941
CGCAGAGC | 0.0296
ATGCCCCC | -0.178
AACCCCCC | -0.409
AAAAGCGA | 0.108
GTCCTTGA | -0.0108
ATCCCGCA | 0.0372
CCTATGCG | 0.0842
AACCGTCG | -0.0847
CATCGTGC | 0.252
CTCCGTGA | -0.177
ACCTACAG | 0.148
CCGAAAAC | -0.0451
AAGACTGA | -0.066
GAGACTAC | -0.355

Sequence | PBM E-score
ACATACAG | 0.0258
AATGGTAG | 0.0944
GACCACAA | -0.0827
GTCGCTGA | -0.0302
CCAATTAC | 0.0501
CATCAAGG | -0.267
GTACTAAC | 0.0799
AGCGATGG | -0.0868
AAATGCTG | -0.0665
AATTAAGC | 0.169
CCTGAGTA | -0.0425
CTTGGTGA | 0.0947
GAATAAGA | -0.0341
CTCAGTAA | -0.0393
CTGGCCGC | -0.0616
AAATTATA | 0.193
CATCTGGC | -0.0649
ATAAACTG | 0.101
CATAGCCC | -0.26
TAGAATAA | 0.144
CCGGAAGG | 0.0415
ACGTTGAG | -0.0343
AAGCCAAA | 0.0105
AACTATGC | 0.15
CTTTAACC | 0.0066

Sequence | PBM E-score
CACAGGCC | -0.219
GGGCACAC | -0.098
CTGGAATC | -0.00516
TCATTGAA | -0.0353
GAGCGGGA | 0.00431
CATTTCGA | 0.166
GGCCAATA | 0.0967
ACATCATC | 0.0243
CTGGGTGC | -0.25
AAACTATC | 0.00931
ATAAGCAC | 0.189
CATATAGG | -0.0961
TACTGACA | 0.0845
CTCTATAA | 0.0291
ACTGTGAT | -0.149
ACCGGCGA | 0.134
AAACCAGC | 0.0714
GAAGTGGA | -0.0297
TAGCGGCA | 0.291
GGGAGGAA | -0.186
CTCGTAGA | -0.125
AGCTTACA | 0.0627
CGATTCCG | -0.0394
GTCCCTTA | -0.0535
TGGTGCAA | -0.147

Sequence | PBM E-score
ATTGGCCA | -0.0253
GGAAAGCC | 0.0616
ATGAATGA | -0.0109
CCCATGAG | -0.332
GTGATCGA | -0.0266
CGGTCTTC | -0.159
GGAGTATA | 0.0122
CCGGACAA | 0.0207
AACGCGGC | 0.443
GACCTCCA | -0.0836
TCCGGCGA | 0.1
CTGACTAC | -0.147
ACTAAACG | 0.062
GTACGCCA | -0.175
ACCGTACA | 0.117
GAAGATGA | -0.16
GAGAGCTA | -0.111
AACGACGA | 0.159
ATAGGTGG | -0.109
ACTTAAGG | 0.0883
ACGGCGCT | 0.481
ACTCAACG | 0.0273
ATTGACCC | -0.104
CGCATCAA | 0.107
AAAATGGT | 0.139

Sequence | PBM E-score
AAGATCTG | 0.105
CTCCCAAA | -0.0217
AAACAAAC | 0.124
AACAAGGG | -0.122
ATATTTCA | 0.101
ACCCCAAA | -0.0783
CCTAAATA | -0.0206
AGCACCTC | -0.238
CATTCCGA | 0.123
CTGATAGC | -0.084
GGCTCATA | 0.0977
TACGACGA | 0.0149
GGGGCCCA | -0.298
CAAATCAG | 0.115
AGCAGTCA | -0.272
CCGAAATA | 0.0974
CCTGTTTC | -0.152
ATTGAAAG | 0.025
CGCCACAG | -0.0135
TTATAGAA | 0.218
AGGCCCAA | 0.0132
AAATACCG | 0.095
AAGAGCTG | 0.00257
CACGTCCC | -0.196
AGGTTGAA | 0.00415

Sequence | PBM E-score
TGTAGGAA | 0.0767
ACATCCCT | -0.172
ATGTCCTA | -0.124
TATCGGGA | -0.0286
AGTTAGTG | -0.0796
AAATAGAT | 0.0937
TGCCAACA | -0.0516
TATCCATA | -0.0071
GCCGCATA | 0.457
CCTGCAGC | -0.209
CCGTTACA | 0.0835
AAACCGTG | -0.0289
ACTTTTGG | -0.0182
CTGCGCAC | -0.0533
AAGGCCAT | 0.0825
GTGGGGAA | -0.0367
CCTCTTGA | 0.027
GGCCTGTA | -0.183
AGAACCAC | -0.24
ACGATCGT | -0.0636
GTGTGTAA | 0.0522
ATCATGCA | -0.107
